Results: patent publication US6624202B2, “Inhibitors of copper-containing amine oxidases” (priority 2000, dated 2003)
At least one compound was matched to its structure with a doubt left.

Tested on: Total rat MAO
Experiment: Total rat MAO activity (rat liver mitochondrial preparation, colourimetric)
Format: biochemical
Conditions: rat liver mitochondria; 0.5 mM tyramine; 1 h at 37° C.; read-out: Total MAO inhibitory activity IC50
Experimental: Rat MAO was prepared from rat liver by rinsing the 1 g liver sample several times in 14 ml KCl-EDTA-solution to remove all blood. Then 1 g liver sample was homogenised in 4 ml ice-cold potassium phosphate buffer (0.1 M, pH 7.4) with an Ultra-Turrax homogeniser (setting 11 000 rpm, 4×10 s). After centrifugation at 500 g for 10 min at 4° C. the supernatant was carefully withdrawn and was centrifuged at 12 300 g for 15 min at 4° C. The supernatant was discharged and sedimented mitochondria were resuspended in 4 ml fresh phosphate buffer and centrifuged as previously. The mitochondria were suspended in 4 ml phosphate buffer and homogenized with an Ultra-Turrax homogeniser (setting 11 000 rpm, 2×10 s). Mitochondrial preparate was aliquoted and stored at −70° C. Total MAO activity was measured in a similar way as for VAP-1 SSAO except that 2,4-dichlorophenol was replaced by 1 mM vanillic acid. To each well was added a predetermined amount of inhibitor if required. The amount of inhibitor varied in each assay but was generally at a final concentration of between 10 nM and 800 μM. Controls lacked inhibitor. The inhibitor was in a total volume of 20 μl in water. The following reagents were then added. 0.2 M potassium phosphate buffer pH 7.6 for a total reaction volume of 300 μl, 50 μl of fleshly made chromogenic solution (as above) and 50 μl of MAO preparation. The plates were incubated for 30 min at 37° C. and the background absorbance measured at 490 nm using a Wallac Victor II multilabel counter. To initiate the enzyme reaction 20 μl of 5 mM tyramine (final concentration 0.5 mM) was added and the plate incubated for 1 h at 37° C. The increase in absorbance, reflecting MAO activity, was measured at […]. Inhibition was presented as percent inhibition compared to control after correcting for background absorbance and IC50 values calculated using GraphPad Prism. Clorgyline and pargyline (inhibitors of MAO-A and -B respectively) at 0.5 μM were added to some wells as positive controls for MAO inhibition.

COc1ccc(C(O)CNN)cc1 (racemic) [Compound 35]
IC50: 6 µM

NNCC(O)c1ccccc1 (single isomer, unassigned) [Compound 50]
IC50: 9.9 µM

CC(C)CN(N)CC(O)c1ccccc1 (racemic) [Compound 24]
IC50: 11 µM

NN(Cc1ccccc1)C(CO)Cc1ccccc1 (racemic) [Compound 38]
IC50: > 500 µM

CN(N)[C@H](c1ccccc1)C(O)c1ccccc1 (stereo in doubt) [Compound 5, (1R*,2S*)-2-(1-methylhydrazino)-1,2-diphenylethanol hydrogemnaleate]
IC50: 54 µM

CC(C(O)c1ccccc1)N(N)Cc1ccccc1 (racemic) [Compound 16]
IC50: 249 µM

COc1cc2c(cc1OC)C(CCO)N(N)CC2 (racemic) [Compound 45]
IC50: 45 µM

NN(Cc1ccccc1)C1CCCCC1O (racemic) [Compound 41]
IC50: 111 µM

COc1cc2c(cc1OC)CN(N)C(CO)C2 (racemic) [Compound 47]
IC50: 1500 µM

C[C@@H]([C@H](O)c1ccccc1)N(N)CC1CC1 (racemic) [Compound 15]
IC50: 10 µM

C[C@@H]([C@H](O)c1ccccc1)N(N)Cc1ccccc1 (racemic) [Compound 17]
IC50: 231 µM

NN1Cc2ccccc2CC1CO (racemic) [Compound 46]
IC50: 614 µM

CCC[C@@H](NN)[C@@H](O)c1ccccc1 (racemic) [Compound 22]
IC50: 11 µM

NNCC(O)c1ccccc1 (single isomer, unassigned) [Compound 49]
IC50: 9.8 µM

COc1ccc(C(O)CNN)cc1 (racemic) [Compound 36]
IC50: 5 µM
